Source: the supplement of paper PMC11125491
± gives the standard deviation of the averaged measurements. Growth of baker's yeast expressing single-residue variants of Pneumocystis jirovecii dihydrofolate reductase in 8.8 or 44 µM methotrexate (about 75% and 90% inhibition of the wild type). Selection coefficient per generation; 0 = like wild type, above 0 = less sensitive, below 0 = more sensitive or loss of function. No active / inactive call per row; the paper calls resistant above 0.220 (8.8 µM) or 0.243 (44 µM) together with a significance test. At 44 µM about 15% of codons end with one read or none, so the lowest values are floors (replicate rank correlation 0.74; 0.94 at 8.8 µM).

B1: UniProt A0EPZ9; numbered along this chain (parent)
chain: MDWQKSLTLIVALTLSRGIGLKNDLPWKLKSDMMFFSRVTSGLLVTRSTGQMNVVLMGRKTWESLPAHSRPLKNRINVVISRQEVLDLGGGAYHARSLDDALALLSQIYDSTSKIQLNRVFVIGGGELCKAAMEHSRLNRIIATVIHNEVDCDVFFPIDFRSSQSCLPWRKQDHSVLEAWVGSKVPQGKINENGFIYEFEMWIRDI

Variants of: B1
Experiment: selection coefficient against synonymous wild-type codons (log2 per generation); higher = faster growth than wild type
Conditions: with Saccharomyces cerevisiae carrying the variant on a plasmid
Experimental: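 Pooled growth of yeast carrying single-residue variants of P. jirovecii dihydrofolate reductase (own DFR1 gene intact), two passages at 30 °C, three cultures, sequenced before and after. Codons with under 15 starting reads are left out; codons of one change are averaged.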

Row | Variant | selection coefficient against synonymous wild-type codons (log2) (methotrexate 8.8 µM) | selection coefficient against synonymous wild-type codons (log2) (methotrexate 44 µM)
1 | MDWQKSLTLIVALTLSRGIGLKNDLPWKLKSDMMFFSRVTSGLLVTRSTGQMNVVLMGRKTWESLPAHSRPLKNRINVVISRQEVLDLGGGAYHARSLDDALALLSQIYDSTSKIQLNRVFVIGGGELCKAAMEHSRLNRIIATVIHNEVDCDVFFPIDFRSSQSCLPWRKQDHSVLEAWVGSKVPQGKINVNGFIYEFEMWIRDI [E192V] | 0.0685 ± 0.024 | 0.0297 ± 0.062
2 | MDWQKSLTLIVALTLSRGIGLKNDLPWKLKSDMMFFSRVTSGLLVTRSTGQMNVVLMGRKTWESLPAHSRPLKNRINVVISRQEVLDLGGGAYHARSLDDALALLSQIYDSTSKIQLNRVFVIGGGELCKAAMEHSRLNRIIATVIHNEVDCDVFFPIDFRSSQSCLPWRKQDHSVLEAWVGSKVPQGKINQNGFIYEFEMWIRDI [E192Q] | 0.0842 ± 0.052 | 0.0409 ± 0.13
3 | MDWQKSLTLIVALTLSRGIGLKNDLPWKLKSDMMFFSRVTSGLLVTRSTGQMNVVLMGRKTWESLPAHSRPLKNRINVVISRQEVLDLGGGAYHARSLDDALALLSQIYDSTSKIQLNRVFVIGGGELCKAAMEHSRLNRIIATVIHNEVDCDVFFPIDFRSSQSCLPWRKQDHSVLEAWVGSKVPQGKINRNGFIYEFEMWIRDI [E192R] | 0.154 ± 0.066 | 0.16 ± 0.074
4 | MDWQKSLTLIVALTLSRGIGLKNDLPWKLKSDMMFFSRVTSGLLVTRSTGQMNVVLMGRKTWESLPAHSRPLKNRINVVISRQEVLDLGGGAYHARSLDDALALLSQIYDSTSKIQLNRVFVIGGGELCKAAMEHSRLNRIIATVIHNEVDCDVFFPIDFRSSQSCLPWRKQDHSVLEAWVGSKVPQGKINWNGFIYEFEMWIRDI [E192W] | -0.102 ± 0.083 | -0.209 ± 0.097
5 | MDWQKSLTLIVALTLSRGIGLKNDLPWKLKSDMMFFSRVTSGLLVTRSTGQMNVVLMGRKTWESLPAHSRPLKNRINVVISRQEVLDLGGGAYHARSLDDALALLSQIYDSTSKIQLNRVFVIGGGELCKAAMEHSRLNRIIATVIHNEVDCDVFFPIDFRSSQSCLPWRKQDHSVLEAWVGSKVPQGKINYNGFIYEFEMWIRDI [E192Y] | 0.00428 ± 0.026 | -0.103 ± 0.089
6 | MDWQKSLTLIVALTLSRGIGLKNDLPWKLKSDMMFFSRVTSGLLVTRSTGQMNVVLMGRKTWESLPAHSRPLKNRINVVISRQEVLDLGGGAYHARSLDDALALLSQIYDSTSKIQLNRVFVIGGGELCKAAMEHSRLNRIIATVIHNEVDCDVFFPIDFRSSQSCLPWRKQDHSVLEAWVGSKVPQGKINSNGFIYEFEMWIRDI [E192S] | 0.0414 ± 0.039 | 0.00454 ± 0.1
7 | MDWQKSLTLIVALTLSRGIGLKNDLPWKLKSDMMFFSRVTSGLLVTRSTGQMNVVLMGRKTWESLPAHSRPLKNRINVVISRQEVLDLGGGAYHARSLDDALALLSQIYDSTSKIQLNRVFVIGGGELCKAAMEHSRLNRIIATVIHNEVDCDVFFPIDFRSSQSCLPWRKQDHSVLEAWVGSKVPQGKINPNGFIYEFEMWIRDI [E192P] | -0.0269 ± 0.1 | -0.191 ± 0.093
8 | MDWQKSLTLIVALTLSRGIGLKNDLPWKLKSDMMFFSRVTSGLLVTRSTGQMNVVLMGRKTWESLPAHSRPLKNRINVVISRQEVLDLGGGAYHARSLDDALALLSQIYDSTSKIQLNRVFVIGGGELCKAAMEHSRLNRIIATVIHNEVDCDVFFPIDFRSSQSCLPWRKQDHSVLEAWVGSKVPQGKINTNGFIYEFEMWIRDI [E192T] | 0.0184 ± 0.048 | -0.0321 ± 0.15
